Data on 98 compounds can be found in article PMC6919601, “Identification of Plasmodium dipeptidyl aminopeptidase allosteric inhibitors by high throughput screening” (PLoS ONE, 2019).

The campaign covered roughly 110,000 compounds. About 230 (0.21%) showed an effect of 50% or more. This is one part of the list.
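Note: 30 min substrate incubation versus DMSO and 10 µM JCP410 controls.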

The target of the assay is DPAP1 (Plasmodium falciparum, UniProt Q8IIJ9). As to the kind of experiment: primary screen, percent inhibition; read by cleavage of a fluorogenic dipeptide substrate; higher = more effect of the substance. On the set-up: species or system P. falciparum D10 trophozoite lysates; single well.
Chain of DPAP1 (Q8IIJ9 whole entry, looked up): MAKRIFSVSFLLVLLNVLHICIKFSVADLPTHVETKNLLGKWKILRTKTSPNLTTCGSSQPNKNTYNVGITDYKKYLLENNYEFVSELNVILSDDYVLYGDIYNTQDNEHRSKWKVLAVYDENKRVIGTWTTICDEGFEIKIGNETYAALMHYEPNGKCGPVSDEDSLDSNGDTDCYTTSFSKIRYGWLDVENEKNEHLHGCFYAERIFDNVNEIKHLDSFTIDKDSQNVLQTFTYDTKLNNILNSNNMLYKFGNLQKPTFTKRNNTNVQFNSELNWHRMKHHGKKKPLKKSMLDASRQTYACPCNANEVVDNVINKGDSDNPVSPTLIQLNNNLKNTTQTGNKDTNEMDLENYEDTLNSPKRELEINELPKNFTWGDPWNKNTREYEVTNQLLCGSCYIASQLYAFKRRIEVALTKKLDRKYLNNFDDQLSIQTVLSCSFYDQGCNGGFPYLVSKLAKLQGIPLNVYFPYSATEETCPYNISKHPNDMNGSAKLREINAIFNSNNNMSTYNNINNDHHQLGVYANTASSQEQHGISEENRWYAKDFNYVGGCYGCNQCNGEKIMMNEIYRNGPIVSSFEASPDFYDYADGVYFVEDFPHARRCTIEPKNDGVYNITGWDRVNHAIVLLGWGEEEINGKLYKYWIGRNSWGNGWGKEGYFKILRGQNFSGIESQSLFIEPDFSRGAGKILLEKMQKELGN
In the case of `COc1cc(C2c3c(-c4ccccc4O)n[nH]c3C(=O)N2CCCO)ccc1O` (centres unmarked), the “% Inhibition @ 10 uM” value was -4.95%.
On to `CC(C)(C)c1ccc(Oc2nc3ccccn3c(=O)c2/C=C(\C#N)C(=O)N2CCOCC2)cc1`, for which the “% Inhibition @ 10 uM” value is -1.86%.
On to `CCCCOc1ccc(C2=NC(=O)/C(=C/c3cccc(OC)c3OC)O2)cc1`, for which the “% Inhibition @ 10 uM” value was determined as 2.1%.
As for `O=C(Cc1cn(Cc2cccc(Cl)c2)c2ccccc12)N1CCCC1`, the figure is 1.91%; as for `Cc1ccc(CNC(=O)CN(C)S(=O)(=O)c2cccc3nsnc23)cc1`, 16.4%; as for `CC(=O)c1ccc(-c2nnc(-c3ccccc3)o2)cc1`, -2.7%.
`O=C(NCc1ccc2c(c1)OCO2)c1ccc(Cl)cc1`: the “% Inhibition @ 10 uM” value was -1.32%.
Turning to `CC(Oc1ccccc1)C(=O)NC1CCN(Cc2ccccc2)CC1` (centres unmarked), the “% Inhibition @ 10 uM” value turned out to be 2.84%.
On to `CCC(=O)Nc1nn2c(-c3ccc(OC)cc3)nnc2s1`, for which the “% Inhibition @ 10 uM” value was determined as 3.36%.
As to `CC(C)(C)c1ccc(C(=O)NCc2nc(-c3ccccc3)no2)cc1`, the “% Inhibition @ 10 uM” value came out at 3.74%.
As for `COc1cc(C2C3=C(O)CCCC3=NC3=C2C(=O)CCC3)ccc1OCC(=O)O` (centres unmarked), the figure is -5.79%; as for `O=C(O)CCS(=O)(=O)c1cc(Cl)ccc1Cl`, -3.66%; as for `O=C(Nc1cccc(O)c1)c1cccc(S(=O)(=O)N2CCCCC2)c1`, -1.74%.
The result for `Cc1cc(C(=O)NCCN2CCN(C)CC2)c2c(C)nn(-c3ccccc3Cl)c2n1` reads -4.97%; that for `O=C(O)C1CCN(S(=O)(=O)c2cccs2)CC1`, -5.76%; that for `CCN1C(=O)/C(=C/c2ccc(O)c(OC)c2)S/C1=N/c1ccc(OC)cc1`, -1.55%.
As for `Cc1cc(C)c2nc3s/c(=C\c4ccc(N5CCOCC5)cc4)c(=O)n3c2c1`, the figure is -0.436%; as for `Clc1ccc2oc(-c3ccccc3)c/c(=N\Cc3cccnc3)c2c1`, 0.561%.
As for `CCN1CCN(c2c(S(=O)(=O)c3ccc(C)cc3)cnc3ccc(C)cc23)CC1`, the “% Inhibition @ 10 uM” value was -7.15%.
The result for `CCCCNC(=O)C(C)n1c2ccccc2c2cnnc(O)c21` (centres unmarked) reads -0.281%; that for `Cc1ccc(Cn2ncc3c(O)ncnc32)cc1`, -0.132%.
`CCOc1ccc(C2c3c(oc4ccccc4c3=O)C(=O)N2c2nncs2)cc1` (centres unmarked): the “% Inhibition @ 10 uM” value is recorded as -5%.
As to `O=C(Nc1ccccc1F)C1CCN(S(=O)(=O)c2ccc(F)cc2)CC1`, the “% Inhibition @ 10 uM” value is listed as -2.45%.
Turning to `Cc1nn(C)c2c1c(-c1ccccc1)cc(=O)n2Cc1ccc2nonc2c1`, the “% Inhibition @ 10 uM” value is reported as 3.47%.
As for `COc1cc(C)c(Cl)c(C)c1S(=O)(=O)N1CCN(c2ccccc2)CC1`, the figure is 1.1%.
As for `CO/C(O)=C(C#N)/C=N/c1ccccn1`, the figure is 4.61%; as for `COc1cccc(NC(=O)C(c2ccccc2)c2ccccc2)c1`, 1.91%.
On to `Cn1c2ccccc2c2cnn(CC(=O)N3CCC(C(N)=O)CC3)c(=O)c21`, for which the “% Inhibition @ 10 uM” value is -3.67%.
As for `O=C(O)CCCC1(C(=O)O)CCCC1`, the figure is 1.29%.
Regarding `c1ccc(-c2nc(NC3CCCCC3)cc(-n3cccn3)n2)cc1`, the “% Inhibition @ 10 uM” value came out at 3.48%.
The result for `CNS(=O)(=O)c1cn(CC(=O)N2CCN(C)CC2)cc1S(=O)(=O)NC` reads -8.28%; that for `CCc1nnc(NC(=O)CCn2cnnn2)s1`, 1.76%; that for `COc1ccc(C2CC(=O)C3=C(C2)NC(=O)CC3c2ccc(C)cc2)cc1` (centres unmarked), 2.54%.
As for `Cc1ccc(C(O)C#CC(O)(c2ccccc2)c2ccccc2)o1` (centres unmarked), the figure is 3.39%; as for `Cn1ncc2c(N3CCc4ccccc4C3)ncnc21`, 5.08%; as for `Cc1nnc(NC(=O)c2cc(=O)c3ccc(C)c(C)c3o2)s1`, 6.56%.
As for `COc1ccc(C(=N)NOC(=O)COc2ccccc2)cc1OC`, the figure is -1.4%; as for `Cc1ccc(NC=C2C(=O)CC(c3ccccc3Cl)CC2=O)cc1` (centres unmarked), 4.07%; as for `O=C(NCc1ccco1)/C(=C\c1cccs1)NC(=O)c1ccsc1`, -0.736%.
Consider `COc1ccc(S(=O)(=O)Nc2ccc3c(c2)OCCO3)c(Cl)c1Cl`, for which the “% Inhibition @ 10 uM” value is on record as 1.28%.
As for `CN(C)S(=O)(=O)c1ccccc1[N+](=O)[O-]`, the figure is -4.01%; as for `COc1ccccc1CC(=O)c1ccc(O)cc1O`, 2.17%.
In the case of `O=C(Cn1nc(Cc2ccncc2)c2ccccc2c1=O)NCCC1=CCCCC1`, the “% Inhibition @ 10 uM” value turned out to be 2.04%.
The result for `CCS(=O)(=O)N1CCC(C(=O)NCCCN2CCC(C)CC2)CC1` reads -1.21%; that for `Cc1nn(CC(=O)N2CCOCC2)c(=O)c2cccn12`, -11.7%.
As for `COc1cccc(C(=O)COc2cccc(N3C(=O)C4C5C=CC(C6CC56)C4C3=O)c2)c1` (centres unmarked), the figure is -2.28%.
The result for `Cc1nc2c3ccccc3n3c(CCCC(=O)NCCCN(C)Cc4ccccc4)nnc3n2n1` reads -6.52%; that for `CC(C)Cn1cc(NC(=O)N(CCCN2CCOCC2)Cc2ccco2)c2ccccc2c1=O`, -0.171%.
On to `N#Cc1nc(COc2ccccc2)oc1NCCCn1ccnc1`, for which the “% Inhibition @ 10 uM” value is recorded as -5.63%.
As for `O=C(c1ccncc1)N1C2C=CC(C2)C1(C(F)(F)F)C(F)(F)F` (centres unmarked), the figure is 3.54%; as for `CCOc1ccc2nc(NC(=O)CC(c3ccc(OC)cc3)n3cccc3)sc2c1` (centres unmarked), -0.72%; as for `O=C(COc1ccc(Br)cc1)Nc1ccc(CN2CCCCC2)cc1`, 0.661%.
The result for `CCc1cc2c(cc3c(=O)n(CCCC(=O)NCc4ccccc4)ncn32)s1` reads 0.0198%; that for `CCCn1c(=N)c(C(=O)NCCN2CCOCC2)cc2c(=O)n3cc(C)ccc3nc21`, -5.14%.
The result for `CCOc1ccc(CCNC(=O)C2CC(=O)N(CCc3ccccc3)C2)cc1OCC` (centres unmarked) reads -7.35%; that for `COc1cc2c(cc1OC)C(c1ccccc1)=NC1(CCCC1)C2`, -4.24%.
As to `C=C(C)Cn1c(CCNC(=O)C2CCCCC2)nc2ccccc21`, the “% Inhibition @ 10 uM” value is listed as 4.8%.
Turning to `CC(=O)Nc1nc2cc(Cl)c(C)cc2s1`, the “% Inhibition @ 10 uM” value is -4.49%.
As for `COC(=O)c1cc(OC)c(OC)cc1NC(=O)c1ccc([N+](=O)[O-])cc1`, the figure is -1.76%; as for `CCCCN(CC)CCNC(=O)C1CCCN(c2ncnc3c2nc2n3CCCCC2)C1` (centres unmarked), 5.7%.
As for `COc1cccc(NC(=O)c2cccnc2)c1`, the figure is -0.294%; as for `Cc1[nH]c(=O)n(Cc2ccccc2)c(=O)c1S(=O)(=O)NCc1ccccc1`, -2.28%; as for `Cc1ccc(-c2noc(CSc3nnc(-c4ccncc4)n3C)n2)cc1`, -0.45%.
As to `COc1ccc(Cl)cc1S(=O)(=O)N1CCCCC1`, the “% Inhibition @ 10 uM” value was -0.711%.
`CN(C)c1ccc(C2Nc3ccc4ncccc4c3C3=C2C(=O)CCC3)cc1` (centres unmarked): the “% Inhibition @ 10 uM” value is recorded as 3.65%.
With `Cc1ccc2c(c1)C(NC(=O)/C=C/c1ccco1)CC1(CCCCC1)O2` (centres unmarked), the “% Inhibition @ 10 uM” value was -3.21%.
As to `O=C(O)c1cc(O)nc2ccc(Br)cc12`, the “% Inhibition @ 10 uM” value was 1.7%.
`COc1cc2c(cc1OC)C(COc1cccc(C(F)(F)F)c1)N(C(=O)c1ccco1)CC2` (centres unmarked): the “% Inhibition @ 10 uM” value is on record as -0.928%.
As for `CC(C)(C)OC(=O)N1CCC(C(=O)N[C@@H](Cc2ccc3ccccc3c2)C(=O)N[C@@H](COCc2ccccc2)C(=O)CO)CC1`, the “% Inhibition @ 10 uM” value is reported as 10.2%.
As for `COc1ccc(-c2cn3nc(N4CCC(C(=O)N5CCCCCC5)CC4)sc3n2)cc1`, the figure is -4.44%; as for `C=CCSc1nc2sc3c(c2c(=O)n1Cc1ccccc1)CCCC3`, 4.57%.
The result for `O=C(/C=C/c1cccc([N+](=O)[O-])c1)c1ccccc1` reads 0.00178%.
Regarding `Cc1oc(-c2ccc(C(=O)NCC3CCCO3)cc2)nc1CS(=O)c1ccccc1` (centres unmarked), the “% Inhibition @ 10 uM” value is -0.416%.
As to `CC1CCC(NC(=O)C2CCN(C(=O)c3cnn(-c4ccccc4)c3-n3cccc3)CC2)CC1` (centres unmarked), the “% Inhibition @ 10 uM” value is -1.58%.
With `O=C1CC(c2ccccc2)C2=C(CC(c3ccccc3)CC2=O)N1` (centres unmarked), the “% Inhibition @ 10 uM” value is recorded as -3.14%.
`CC1=CC2=NC(=O)/C(=C\c3ccco3)C(=N)N2O1`: the “% Inhibition @ 10 uM” value turned out to be 0.317%.
Regarding `CN1CCN(C2CC3CCC2C3)CC1` (centres unmarked), the “% Inhibition @ 10 uM” value is -3.35%.
As for `COc1cc(C2C(C#N)=C(N)OC3=C2C(=O)CCC3)cc(Br)c1O` (centres unmarked), the figure is -3.99%; as for `CCOC(=O)N1CCN(C(=O)CSc2c3c(nc4ccccc24)CCCC3)CC1`, -7.05%.
As for `COc1cc(N2CCCC2)c(OC)cc1/C=C1/NC(=O)NC1=O`, the figure is -0.62%; as for `CCN1C(=O)C(CC(=O)Nc2cc(Cl)ccc2C)S/C1=N\c1cccc(C(C)=O)c1` (centres unmarked), 0.793%.
For `C=CCn1c(=S)[nH]c2c(c1=O)C1(CCCC1)Cc1ccccc1-2`, the “% Inhibition @ 10 uM” value came out at 2.16%.
As to `CCc1cccc(C(=O)N[C@@H](CC(C)C)C(=O)NC(C#N)c2ccc(C)o2)c1` (some centres unmarked), the “% Inhibition @ 10 uM” value was 1.71%.
`Cc1ccc(Cn2ccc(NC(=O)c3cc(C)on3)n2)cc1`: the “% Inhibition @ 10 uM” value is listed as -11.5%.
The result for `COc1ccc(C2CC(=O)N3CN(C(C)c4ccccc4)CSC3=C2C#N)cc1OC` (centres unmarked) reads 28%; that for `O=c1c(-c2ccc(Cl)cc2Cl)coc2cc(O)ccc12`, 9.39%; that for `O=C(CSc1nc(-c2cccc(F)c2)[nH]c1-c1ccccc1)NCc1ccco1`, -1.58%.
The result for `COc1ccc(CN2CCN(Cc3cccc(F)c3)CC2)cc1` reads -9.07%.
As for `COc1ccc(OC)c(C2CC(=O)N3CN(C4CCCCC4)CSC3=C2C#N)c1` (centres unmarked), the figure is 9.77%; as for `O=C(NCCCN1CCOCC1)c1cc2ccccc2[nH]1`, 0.0539%.
Take `CCOc1ccc(C2CC(=O)NC3=C2C(=O)CC(c2cccs2)C3)cc1` (centres unmarked): the “% Inhibition @ 10 uM” value is reported as -3.51%.
The result for `CC(C)C(O)(C#CCN1CCCCC1)C(C)C` reads 0.912%; that for `COc1cc(-c2nc3n(n2)C(c2ccccc2)C(C(=O)Nc2cccnc2)=C(C)N3)cc(OC)c1OC` (centres unmarked), 1.96%; that for `Cc1cccc(N2C(=O)CC(N3CCN(C/C=C/c4ccccc4)CC3)C2=O)c1` (centres unmarked), 6.1%.
For `CCOc1ccc2[nH]c(SCC(=O)Nc3cccc(C(C)=O)c3)nc2c1`, the “% Inhibition @ 10 uM” value is given as -7.09%.
On to `Cc1ccc(-c2[nH]nc3c2C(c2ccccc2)C2=C(O)CC(C)(C)CC2=N3)cc1` (centres unmarked), for which the “% Inhibition @ 10 uM” value is -3.85%.
Regarding `COc1ccc(C2=NC(C)(C)Cc3cc(OC)c(OC)c(OC)c32)cc1OC`, the “% Inhibition @ 10 uM” value amounted to 1.74%.
`Cc1cccn2c(=O)c3cc(C(=O)NCCCOC(C)C)n(C)c3nc12`: the “% Inhibition @ 10 uM” value is recorded as -7.22%.
